The text below walks through data of ChEMBL document CHEMBL4888484, “Replenishing the malaria drug discovery pipeline: Screening and hit evaluation of the MMV Hit Generation Library 1 (HGL1) against asexual blood stage Plasmodium falciparum ,using a nano luciferase reporter read-out” (2022).

The campaign covered roughly 150,000 compounds. About 540 (0.36%) showed an effect of 50% or more. This is one part of the list.

The subject of the test is Plasmodium falciparum. The test can be described thus: Primary screen in NF54 nanoGlo assay, in single point, at 2uM, 72h; a lower Z score goes with more inhibition. It counts as functional, Erythrocyte. To be noted: timepoint 72 hour.
Take `O=C(N1CCCC1)N1CCN(c2noc(C3CC3)n2)C[C@@H](O)C1`: the “% Inhibition” value is recorded as 14% and the Z score was -1.86.
As to `Cc1c(NCc2csc(C3CCCC3)n2)cccc1C(=O)N1CCOCC1`, the “% Inhibition” value was -9% and the Z score is reported as 1.04.
The corresponding values for `COc1ccc(N2C[C@@H](C(=O)N(CCc3ccccc3)Cc3ccccc3)CC2=O)cc1` are -4% and 0.37.
On to `c1cnn(C2CCCCC2NCc2ccon2)c1` (centres undefined), for which the “% Inhibition” value is reported as -6% and the Z score worked out at 0.81.
For `CC(=O)NCCNC(=O)c1cc(NCc2cccc(C)c2)cc(S(=O)(=O)Nc2ccccc2C)c1`, the “% Inhibition” value is given as -1% and the Z score worked out at 0.16.
In the case of `O=C(Nc1nnc(-c2ccsc2)o1)c1cc(-c2ccccc2)on1`, the “% Inhibition” value was -2% and the Z score was found to be 0.35.
On to `CCCOc1ccc(CNCCCN(C)C)cc1OCC`, for which the “% Inhibition” value came out at 1% and the Z score is listed as -0.08.
On to `Cc1ccc(NC(=O)Cn2nc3c(N4CCOCC4)nccn3c2=O)cc1F`, for which the “% Inhibition” value is -3% and the Z score was 0.43.
With `Cc1ccc(NC(=O)N2CCN(c3cnnc(N(C)C)c3)CC2)c(Cl)c1`, the “% Inhibition” value turned out to be 0% and the Z score was determined as 0.04.
The corresponding values for `CC1(C)CCC[C@H](CNC(=O)c2cnc(O)cc2C(F)(F)F)O1` are -4% and 0.89.
In the case of `CCCNC(=O)CN1CCC2(O)CCCCC2[C@@H]1c1cc(OC)ccc1OC` (some centres undefined), the “% Inhibition” value came to 2% and the Z score is -0.2.
Turning to `CN(CCCO)S(=O)(=O)c1c(F)cccc1OC(F)(F)F`, the “% Inhibition” value is 1% and the Z score is on record as -0.13.
The corresponding values for `Fc1cccc(Cl)c1CNc1ccc(Nc2ccccc2)cc1` are -5% and 0.57.
Taken in the same sequence, the figures for `CCC(CC)(CO)CN(C)C(=O)c1cc(F)cc(C#N)c1` were -5% and 1.
Regarding `CC(C)OCCC(=O)N1CCN(CC(C)(C)O)CC1`, the “% Inhibition” value is listed as 0% and the Z score amounted to 0.04.
The corresponding values for `CN(CCC1(O)CCCC1)C(=O)[C@@H]1CCCCCN1C` are -8% and 1.36.
For the compound `COCCCN1CC[C@H](CNC(=O)c2ccc(-c3cccc(C)n3)cc2)C1`, the “% Inhibition” value is on record as -9% and the Z score is reported as 1.21.
For the compound `COc1ccc2cc(COC(=O)CN3C(=O)c4ccccc4C3=O)ccc2c1`, the “% Inhibition” value was found to be 2% and the Z score is on record as -0.21.
As for `CO[C@@](C)(CNS(C)(=O)=O)c1cccc(Cl)c1`, the “% Inhibition” value was -15% and the Z score is listed as 3.08.
The corresponding values for `Cc1ocnc1C(=O)N1CC[C@@]2(CCCN(Cc3ccc(F)c(F)c3)C2=O)C1` are -7% and 1.28.
Consider `CC(C)n1cnnc1CNC(=O)[C@H](C)n1nnnc1C(C)(C)C`, for which the “% Inhibition” value is listed as -7% and the Z score is listed as 0.72.
In the case of `Cc1nc(CN(Cc2ccc(F)cc2)[C@H]2CCN(C)C2)oc1C`, the “% Inhibition” value was 5% and the Z score is listed as -0.92.
Consider `Cc1ccc2ncc(CN3CCC[C@H](CNC(=O)Nc4cccc(F)c4)C3)n2c1`, for which the “% Inhibition” value is recorded as -13% and the Z score was 2.28.
In the case of `COc1ccc(CNCc2cccnc2Oc2ccccc2)cc1`, the “% Inhibition” value was determined as 3% and the Z score is -0.37.
For `CCOC(=O)[C@H]1CCCN(Cc2cn3cccnc3n2)C1`, the “% Inhibition” value is 4% and the Z score was -0.49.
With `N#Cc1cccnc1NCCNCc1ccc2c(c1)CCO2`, the “% Inhibition” value is on record as -3% and the Z score amounted to 0.3.
Regarding `Cc1ccc(NC(=O)c2coc(CN3CCN(CC(C)(C)O)CC3)n2)cc1C`, the “% Inhibition” value is on record as 3% and the Z score is -0.32.
With `C[C@@]1(C(=O)N2CCC3(CCC(=O)N(CCc4c[nH]cn4)C3)CC2)CCCO1`, the “% Inhibition” value is -8% and the Z score came to 0.82.
The corresponding values for `Cc1ccc(Cl)cc1N1CCN(C(=O)c2cc3n(n2)C[C@@H](O)CNC3=O)CC1` are -13% and 1.21.
Taken in the same sequence, the figures for `COc1ccc(OCC(=O)N2CCC3(CC2)Nc2cccnc2N=C3NC(C)(C)C)cc1` were 35% and -3.97.
In the case of `CCC[C@H](NC(=O)c1c(Cl)c(C)nn1C)C(=O)NC`, the “% Inhibition” value is recorded as -18% and the Z score stood at 1.9.
The corresponding values for `COCc1ccccc1S(=O)(=O)N(C)c1ccc2ccccc2n1` are -1% and 0.1.
Regarding `CCn1nc(C)c(CN2CCOc3ccc(C4(O)CCN(C)CC4)cc3C2)c1C`, the “% Inhibition” value is listed as -12% and the Z score was found to be 2.
Taken in the same sequence, the figures for `Cc1ccsc1CN(C)[C@@H](C)C(=O)NC(N)=O` were -14% and 2.01.
As to `COc1ncccc1C(=O)N1CCc2c(cnc3cc(C)nn23)C1`, the “% Inhibition” value was -1% and the Z score came to 0.19.
Turning to `CC(NC1CC(C)(C)OC1(C)C)C(=O)NCc1cccs1` (centres undefined), the “% Inhibition” value is -6% and the Z score is 0.75.
Taken in the same sequence, the figures for `COc1ccc(-c2cc(C(=O)NCc3ccc4c(c3)OCO4)c3ccccc3n2)cc1OC` were -7% and 1.3.
The corresponding values for `Clc1ccc(N2COC3c4cccc5cccc(c45)C32)cc1` (centres undefined) are -1% and 0.06.
Take `CC1=N[C@@H](Cc2ccccc2)C(=O)Nc2cc(Br)ccc21`: the “% Inhibition” value is recorded as -9% and the Z score amounted to 1.67.
For `CCCC[C@@H](c1cccnc1)N(C)Cc1ccco1`, the “% Inhibition” value is given as -15% and the Z score is listed as 1.47.
The corresponding values for `O=c1c2ccccc2sn1-c1cc(S(=O)(=O)N2CCOCC2)ccc1N1CCCC1` are -13% and 2.05.
As for `C[C@@H](CO)NC(=O)C(=O)Nc1c(F)c(F)c(F)c(F)c1F`, the “% Inhibition” value is -43% and the Z score was 4.99.

The term % Inhibition denotes the change of the read-out against control, counted positive when it falls.
